Data published in article PMC4948766, “The Eukaryotic-Specific ISD11 Is a Complex-Orphan Protein with Ability to Bind the Prokaryotic IscS” (PLoS ONE, 2016).

Columns and labels:
[1] = target: the molecule itself; experiment: SEC; freshly purified samples from SEC, concentration of the purified fraction less than 0.5 mg/ml
[2] = target: T1, His10-tagged IscS, separately purified (E. coli, UniProt P0A6B7 1-404); experiment: SEC; analytical SEC at 280 nm of separately purified IscS-His10 (30 μM) and ISD11 (150 μM) mixed in a ratio of 1 to 5, compared with isolated IscS; settings: both partners purified
T1 construct: cysteine desulfurase IscS, E. coli; The methods describe IscS with an N-terminal His-tag that is removed by TEV; also called IscS-His10; IscS-His
T1 sequence (looked up): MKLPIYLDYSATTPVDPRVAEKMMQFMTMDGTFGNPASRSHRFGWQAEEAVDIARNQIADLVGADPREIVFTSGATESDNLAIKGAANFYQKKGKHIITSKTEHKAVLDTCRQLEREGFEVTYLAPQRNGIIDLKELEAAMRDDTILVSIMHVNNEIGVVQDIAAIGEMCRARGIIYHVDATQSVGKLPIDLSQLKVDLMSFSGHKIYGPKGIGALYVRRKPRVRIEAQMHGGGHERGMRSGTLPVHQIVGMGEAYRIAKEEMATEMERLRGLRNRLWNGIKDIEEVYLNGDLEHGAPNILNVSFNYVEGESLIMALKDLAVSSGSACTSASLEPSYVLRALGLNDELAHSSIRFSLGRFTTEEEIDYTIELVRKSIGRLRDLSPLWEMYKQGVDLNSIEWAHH

B1: human ISD11 (expressed as GST-ISD11 from pZM96, GST removed with thrombin) (natural protein)
chain: not shown
notes: five additional amino acids left at the N-terminus after thrombin cleavage; ISD11 (LYRM4), human, full length; In the co-purification with endogenous IscS the GST tag was still on during the glutathione step and was cleaved before the SEC step in which IscS co-eluted; also called [U-15N]-ISD11; ISD11 (purified by GST-tag); source: E. coli Rosetta2 (DE3)pLysS, purified (Glutathione Sepharose 4B, …)
For B1, the “stoichiometry N” value [1] was 2 and the binding result [2] was “binds”.
